Laboratory results as given in publication PMC6919601, “Identification of Plasmodium dipeptidyl aminopeptidase allosteric inhibitors by high throughput screening” (PLoS ONE, 2019).
The whole screen tested about 110,000 compounds, of which about 230 (0.21%) showed an effect of 50% or more. Some of the results follow.

target: DPAP1 (Plasmodium falciparum, UniProt Q8IIJ9); assay: primary screen, percent inhibition; read by cleavage of a fluorogenic dipeptide substrate; higher = more effect of the substance; design: species or system P. falciparum D10 trophozoite lysates; single well
Sequence (Q8IIJ9 whole entry, looked up): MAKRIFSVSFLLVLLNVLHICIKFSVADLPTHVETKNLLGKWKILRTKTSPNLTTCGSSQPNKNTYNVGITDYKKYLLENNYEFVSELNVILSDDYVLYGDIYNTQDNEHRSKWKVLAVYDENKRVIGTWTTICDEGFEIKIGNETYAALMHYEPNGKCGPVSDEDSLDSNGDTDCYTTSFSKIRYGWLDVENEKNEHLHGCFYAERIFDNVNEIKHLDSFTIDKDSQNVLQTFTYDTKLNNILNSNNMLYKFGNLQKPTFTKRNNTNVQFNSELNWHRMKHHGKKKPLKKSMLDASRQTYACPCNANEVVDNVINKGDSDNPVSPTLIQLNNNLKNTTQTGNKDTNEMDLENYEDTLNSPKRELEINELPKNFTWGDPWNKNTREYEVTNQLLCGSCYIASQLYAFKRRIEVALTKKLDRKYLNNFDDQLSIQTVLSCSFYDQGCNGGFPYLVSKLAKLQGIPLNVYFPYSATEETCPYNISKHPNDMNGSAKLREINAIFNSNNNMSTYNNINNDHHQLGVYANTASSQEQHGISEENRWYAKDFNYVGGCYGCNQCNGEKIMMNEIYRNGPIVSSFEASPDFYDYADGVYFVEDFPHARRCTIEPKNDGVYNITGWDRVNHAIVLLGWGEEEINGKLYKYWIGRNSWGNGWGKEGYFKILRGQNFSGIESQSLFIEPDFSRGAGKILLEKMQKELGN
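Also: 30 min substrate incubation versus DMSO and 10 µM JCP410 controls.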

SMILES	% Inhibition @ 10 uM
CCN(CC)CCNc1nc2c(=O)[nH]c(=O)n(C)c2[nH]1	1.96%
CCCCNC(=O)CCc1nc(-c2ccc(C(C)(C)C)cc2)no1	-3.12%
Cc1cc(-c2ccc(S(=O)(=O)N(C)Cc3ccccc3)s2)on1	3.08%
O=C(Nc1sc2c(c1C(=O)NCc1ccco1)CCC2)c1cc(=O)c2cc(Cl)ccc2o1	0.248%
COc1ccc(C2=N/C(=C\C=C\c3ccccc3OC)C(=O)O2)c(Cl)c1	6.86%
Cc1cc(C)n(C(C)CC(=O)NCc2ccc3c(c2)OCO3)n1 (stereo not drawn)	-5.52%
COc1ccc(C(=O)NCC2COc3ccccc3O2)cc1OC (stereo not drawn)	3.32%
Cc1nc2cc(-c3ccccc3)nn2c(C)c1CC(=O)NCC1CCCO1 (stereo not drawn)	-2.45%
Cc1ccc(OCC(=O)Nc2ccc(C(N)=O)cc2)cc1	-1.74%
COc1ccc(CNC(=O)C(C)n2ccc3cc(S(=O)(=O)N4CCCC4)ccc32)cc1 (stereo not drawn)	0.931%
CCOc1ccc(N(CC(=O)Nc2cc(C(F)(F)F)ccc2Cl)S(C)(=O)=O)cc1	-3.77%
CCOc1cc(/C=C2/C(=N)N3OC(C)=CC3=NC2=O)ccc1OCc1cccc(C)c1	-7.05%
Cc1csc2nc(CNC(=O)COc3ccccc3)cn12	-0.72%
Cc1nc(SCC(=O)Nc2cccc(C(F)(F)F)c2)c(C#N)c(C)c1C	-0.305%
O=C(CSc1nc2ccccc2o1)NC1CCCCC1	4.03%
Cc1cc2nc(SCc3ccccc3)[nH]c2cc1C	23.8%
Cc1cc(C)c(S(=O)(=O)N2CCN(c3ccccc3F)CC2)c(C)c1	3.86%
COc1cc(OC)cc(C(=O)NCc2ccc(S(N)(=O)=O)cc2)c1	-4.94%
COc1cccc(C(=O)N2CCC(C(=O)N3CCOCC3)CC2)c1	1.52%
O=C(COC(=O)C1CC1)c1c[nH]c2ccccc12	1.66%
CC(=O)c1ccc(NC(=O)c2ccc3ccccc3c2)cc1	-5.1%

SMILES	% Inhibition @ 10 uM
O=S(=O)(Cc1ccc(Cl)cc1)c1nc2ccccc2[nH]1	-5.92%
COCCCN1C(=O)/C(=C\c2ccc(C(=O)OC)cc2)C(C(=O)OC)=C1C	1.7%
CCOC(=O)C1CCCCN1Cc1ccc(OC)c(C)c1OC (stereo not drawn)	-1.92%
Cc1cccn2c(=O)c(/C=C(\C#N)C(=O)N3CCCCC3)c(Oc3ccc(Br)cc3)nc12	3.63%
CC1CCN(C(=O)CCc2nc(CN3CCN(C(=O)/C=C/c4ccco4)CC3)no2)CC1	0.889%
O=C(NCc1ccccc1)c1cccc(S(=O)(=O)Nc2ccc(Br)cc2)c1	6.31%
CCN(CC)CCOC(=O)NS(=O)(=O)c1ccccc1Cl	-0.999%
N#Cc1nc(/C=C/c2cccs2)oc1NCc1ccc2c(c1)OCO2	1.67%
CCOc1ccccc1CNS(=O)(=O)c1ccc(-c2cc(C(F)(F)F)no2)s1	-1.95%
COc1ccc(C(=O)Nc2ccc(S(=O)(=O)N3CCCC3)cc2)cc1Br	4.57%
Cc1ccc(-n2c(S)nnc2-c2cccnc2)cc1Cl	-3.21%
OCCN1C2=NCCCN2c2ccccc21	-3.35%
Cc1ccc2c(c1)-c1c(cnn1CC(=O)NCc1cccnc1)CO2	-5.03%
CCOC(=O)NCc1cc(-c2nn(C)c(=O)c3ccccc23)ccc1C	5.44%
CCN(CC)CCN(C(=O)c1ccc(C(C)=O)cc1)c1nc2ccc(Cl)cc2s1	-2.95%
Cc1c(C2=CCN(S(=O)(=O)Cc3ccccc3)CC2)c2ccccc2n1CC(=O)N1CCCC1	3.96%
Cc1cccc(C)c1OCC(=O)Nc1ccc(C(=O)O)cc1	6.51%
Cc1cc(/C=C2/C(=N)N3C(=NC2=O)SN=C3S(=O)(=O)C(C)C)c(C)n1-c1ccccc1	-3.39%
COc1ccc(-c2nc(N3CCN(C)CC3)nc(O)c2C#N)cc1	1.9%
CCOc1ccc(CC(=O)N2N=C(C(F)F)CC2(O)C(F)F)cc1 (stereo not drawn)	2.92%
O=C(CSc1nc2c(c(=O)n1Cc1ccccc1)SCC2)N1CCCC1	2.19%

SMILES	% Inhibition @ 10 uM
CCO/C(O)=C1\C(C)=NC2=C(C(=O)c3ccccc32)C1c1ccccc1Br (stereo not drawn)	-0.169%
CCCn1c(=O)c2sccc2n2c(CCCC(=O)NCCC3=CCCCC3)nnc12	-6.26%
CCOC(=O)c1nnn(-c2ccc(C)cc2)c1C(=O)OCC	-1.58%
COc1ccc(S(=O)(=O)N2CCCCC2C)cc1 (stereo not drawn)	-0.833%
CC12CN3CC(c4ccccc4)(CN(C1)C3(C)C)C2=O	-4.91%
CC(C)C[C@H](NC(=O)OCc1ccccc1)C(=O)NC1(C#N)CCN(CC(F)(F)F)CC1	1.35%
Cc1nnc(C)n1/N=C/C=C/c1ccccc1	-0.339%
COc1ccc(OC)c(C2CC(=O)C3=C(C2)NC(=O)CC3c2cccc(C)c2)c1 (stereo not drawn)	-2.87%
Cc1ccccc1OCCCCN1CCCC1	0.98%
COc1cc(OC)cc(C(=O)N2c3ccccc3CC2C)c1 (stereo not drawn)	-5.7%
CCOC(=O)C1=C(CN2CCC(C(N)=O)CC2)NC(=O)NC1c1ccc(F)cc1 (stereo not drawn)	2.58%
OC1(C#Cc2ccccc2)CCN(Cc2ccccc2)CC1	4.74%
Clc1ccccc1N1CCN(CCCc2ccccc2)CC1	-6.82%
Cc1nn(C(C)C(=O)NCCC2=CCCCC2)c(=O)c2nn(-c3ccccc3)c(C)c12 (stereo not drawn)	1.11%
COc1ccc(-c2cc3nc(C)c(Cc4ccccc4)c(O)n3n2)cc1	-1.92%
CC(=O)N1CC=C2C(C#N)=C(N)C(C#N)(C#N)C(c3ccc(F)cc3F)C2C1 (stereo not drawn)	-0.143%
COc1ccc(S(=O)(=O)N(CC(=O)N2CCCCCC2)c2ccc(C)cc2)cc1OC	-0.48%
O=C(O)C1CCN(S(=O)(=O)Cc2ccccc2)CC1	3.66%
CCN1CCN(CCCNC(=O)Cc2ccc(-n3c(-c4ccccc4)nc4cccnc43)cc2)CC1	-4.21%
Cc1ccccc1-c1nc2s/c(=C\c3ccccc3)c(=O)n2n1	0.561%
Cc1ccc2c(c1)cc1c(=O)n(CC(=O)NCC3CCCO3)nc(C)n12 (stereo not drawn)	4.84%
